# The list shows a part of the results.
# System: PfHDP1 homeodomain (GST-tagged)
# Assay: gcPBM binding intensity (ln(normalized median fluorescence intensity)); higher = stronger DNA binding
# How it was run: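 GST-tagged P. falciparum DNA-binding domains produced in E. coli were incubated for 1 h on an Agilent 4 × 180k array of primer-extended double-stranded 36-bp intergenic genomic probes with negative controls. Binding intensity is the highest Masliner-normalised natural-log median intensity across replicate spots of either probe orientation, with bound protein detected by Alexa488 anti-GST antibody at 488 nm.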
row,Sequence,gcPBM binding intensity (ln)
1,TAATGGAATAAAAATTGTACATATTTTTTTTTTTTT [XGTACX_site7669],6.34
2,TGTAGTCTGGAGAAACGTACATAGTATCTGGTAGCT [XGTACX_site2538],6.33
3,AAATTTTCTTAAGGTTGTACTTTTTGAAAATAATCT [XGTACX_site4894],6.01
4,TTTTTATATATATGTATAAATATTTTTTCTATTTAT [XGTACX_negctrl_site606],6.46
5,ATATTTATAATATAGAGTACTTACTAAGTTATGGGT [XGTACX_site5405],6.69
6,AATGTGTAGGTAAGATAATTTTTGTTTTTTTATTTG [CACACA_negctrl_site424],6.48
7,TTAAACTTGAAACACACACACACACCCATATAAAAA [CACACA_site758],7.17
8,TAATAATAGAGACACACACACATTTTTAATAATACA [CACACA_site6691],6.77
9,CTTTGTAGTTGGTCCACACACATATATGGAAGAATA [CACACA_site1280],6.79
10,ATATATATATATATATATATATATATATTTATATAT [GTGCAC_negctrl_site180],9.28
11,TAAAAGGAACAAAATTGTACTTAAAAGACAAAGTTA [XGTACX_site7661],5.62
12,ACACAAAAATAAAAATGTACAAATTAAAAAAAATGA [XGTACX_site2083],6.73
13,CACACCATATAATATATATATATGTATATATTTATA [CACACA_negctrl_site397],6.58
14,TTTTTTTTTTTTTTGTCACACACCTTCATAAGAAAA [CACACA_site1166],6.59
15,ATATATATTAATAGTTGTACTATTATAATATTACAA [XGTACX_site1213],6.22
16,ATCCTGAACAGAATATGTATAAACAGAAGGAAACAA [CACACA_negctrl_site1805],7.03
17,AAAAAAAAAAAAAAAAGTACAAAAAAAAAAAAAAAA [XGTACX_site4549],6.51
18,TACACGCATAGACACACACACACACGCATATAAATA [CACACA_site6446],7.22
19,TATACCTATAGACACACACACATAAATAGATATATA [CACACA_site6748],6.85
20,TTTTTTTTTTTAAATAGTACACATATATATATATAT [XGTACX_site6983],9.06
21,AGTTTACACCTTGTGAGTACATACATACATATATAT [XGTACX_site8793],6.65
22,TTTTATTTTTCTAGTAGTACTTCTTTTTATAATATA [XGTACX_site1181],6.85
23,AGAAAAATTCTAAGAACATGCAAAAAAATAAAAAAA [TGCATGCA_site293],6.6
24,TTAACATTTTAAAAATGTACATTTATATACATAAAT [XGTACX_site922],6.46

# Reference: the supplement of paper PMC11417369
